From PubChem BioAssay AID1645887 (National Center for Advancing Translational Sciences (NCATS), 2021) come the findings set out here.

Molecules are shown by their SMILES. Several values for one entry are separate records, joined by “and”; a condition that tells them apart may be missing. Equal entries are not always repeated. Among all 16,000 compounds or so, about 40 (0.2%) were called active. About 1% were inconclusive and are not listed. Calls come from the whole dose curve; as a rule, active = well fitted activation curve with a large enough effect; inconclusive = small, poorly fitted or top-dose-only effect, or another doubt; inactive = no such curve, though single readings can be large or run the other way. The list shows a part of the results.
% is set by controls: 0 for no effect and ±100 for the full control effect.

This experiment addresses Rap guanine nucleotide exchange factor 4 (Homo sapiens) (UniProt Q8WZA2). Nature of the experiment: Validation qHTS for agonist of cAMP-regulated guanine nucleotide exchange factor 4 (EPAC2).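 Note: exchange makes BODIPY-GDP fluorescence drop when released from Rap1B; series mostly up to about 150 µM.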 The settings on record: EPAC2 Rap1B BODIPY-GDP exchange, fluorescence; activation: active compounds read high. In short, it runs like this: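 Signal normalized against 6.5 mM cAMP as agonist control. Mix of EPAC2 (100 nM), RAP1B-BODIPY-GDP (250 nM) and GDP (50 uM) was read kinetically at 480/540 nm, every 5 min over 30 min, after 5 min room-temperature incubation with compound.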
Sequence of UniProt Q8WZA2 (Q8WZA2 whole entry, looked up): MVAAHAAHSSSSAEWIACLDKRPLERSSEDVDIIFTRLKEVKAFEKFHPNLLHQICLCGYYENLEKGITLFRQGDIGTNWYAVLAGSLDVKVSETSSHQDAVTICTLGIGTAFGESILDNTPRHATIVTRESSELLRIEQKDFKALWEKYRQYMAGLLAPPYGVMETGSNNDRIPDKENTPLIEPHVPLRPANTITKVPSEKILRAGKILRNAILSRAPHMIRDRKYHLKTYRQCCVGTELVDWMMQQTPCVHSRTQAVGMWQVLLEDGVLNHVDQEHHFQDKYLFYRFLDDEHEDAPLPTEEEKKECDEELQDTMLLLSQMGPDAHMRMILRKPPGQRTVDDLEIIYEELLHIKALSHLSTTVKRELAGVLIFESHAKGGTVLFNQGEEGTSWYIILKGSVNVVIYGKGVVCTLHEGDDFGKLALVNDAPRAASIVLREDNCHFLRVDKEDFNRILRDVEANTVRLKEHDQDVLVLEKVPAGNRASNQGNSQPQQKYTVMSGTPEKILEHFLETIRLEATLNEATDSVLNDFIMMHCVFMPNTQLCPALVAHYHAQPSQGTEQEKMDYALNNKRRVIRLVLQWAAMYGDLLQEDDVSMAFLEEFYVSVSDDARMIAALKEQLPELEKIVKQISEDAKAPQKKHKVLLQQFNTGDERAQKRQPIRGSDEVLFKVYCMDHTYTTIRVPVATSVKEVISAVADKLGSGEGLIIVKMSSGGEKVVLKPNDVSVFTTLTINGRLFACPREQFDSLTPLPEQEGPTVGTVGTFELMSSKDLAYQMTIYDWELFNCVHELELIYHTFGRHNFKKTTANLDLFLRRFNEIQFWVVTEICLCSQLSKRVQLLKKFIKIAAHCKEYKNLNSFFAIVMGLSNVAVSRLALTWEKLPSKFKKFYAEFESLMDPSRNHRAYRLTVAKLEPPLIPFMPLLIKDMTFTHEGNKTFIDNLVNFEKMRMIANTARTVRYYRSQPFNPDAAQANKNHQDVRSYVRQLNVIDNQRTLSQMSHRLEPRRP
On to `C[C@@H](O)[C@H]1C(=O)N2C(C(=O)[O-])=C(SC3Cn4cnc[n+]4C3)[C@H](C)[C@H]12` (stereo not given in full), for which the activation is inactive: -27.1%.
The value for `CCNc1ncc2nc(C)c(=O)n(-c3ccc(OC)cc3)c2n1` was inactive: -17.7%.
For the compound `COc1cccc(Nc2ncc3nc(C)c(=O)n(C4CC4)c3n2)c1`, the activation was inactive: 0.874%.
The figure for `O=S(=O)(c1ccccc1)N1CCC[C@@]2(CCN(Cc3cc(C(F)(F)F)cc(C(F)(F)F)c3)C2)C1` is inactive: 4.59%; for `CSc1nc(N)c2ncn([C@@H]3O[C@H](COP(=O)(O)OP(=O)(O)O)C(O)[C@H]3O)c2n1` (stereo not given in full) it is inactive: 9.85%.
`O=S(=O)([O][Al])OC[C@H]1O[C@@](COS(=O)(=O)[O][Al])(O[C@H]2O[C@H](COS(=O)(=O)[O][Al])[C@@H](OS(=O)(=O)[O][Al])[C@H](OS(=O)(=O)[O][Al])[C@H]2OS(=O)(=O)[O][Al])[C@@H](OS(=O)(=O)[O][Al])[C@@H]1OS(=O)(=O)[O][Al]`: the activation is inactive: 6.5%.
The figure for `COc1cccc(CN2CCC(n3cc(C(=O)N4CCCCC4)nn3)CC2)c1OC` is inactive: 7.09%; for `COc1ccc(-c2nc3cnc(N4CCNCC4)nc3n(Cc3ccc(F)cc3)c2=O)cc1` it is inactive: -10.9%.
The figure for `COc1cccc(-c2ccc3ncnc(NCCc4c[nH]c5ccc(OC)cc45)c3c2)c1` is inactive: 18.9%; for `CC(C(=O)O)c1ccc2c(c1)CC(=O)c1ccccc1S2` (stereo not given) it is inactive: -16.2%.
Regarding `Oc1cc2c(cc1O)[C@@H]1c3ccc(O)c(O)c3OC[C@]1(O)C2`, the activation is inactive: -15.4%.
The value for `O=C1CC(CC(=O)N2CC3CCCC2C3)(c2cccc(F)c2)C(=O)N1Cc1cccnc1` (stereo not given) was inactive: -20.9%; that for `CN(C)c1ccc(C(=C2C=CC(=[N+](C)C)C=C2)c2ccc(N(C)C)cc2)cc1` was inactive: 17.6% and inactive: 12%; that for `O=C(NCCc1nnc2n1CCN(Cc1ccsc1)CC2)c1ccc(F)cc1` was inactive: -0.665%.
The value for `CC(=O)NCCNc1ncnc2ccc(-c3ccccc3C)cc12` was inactive: -2.6%; that for `CCC(=O)c1ccc2c(c1)N(CCCN1CCN(CCO)CC1)c1ccccc1S2` was inactive: 8.15%.
The value for `COc1ncc2ncc(=O)n(CCC#N)c2n1` was inactive: -7.28%; that for `COc1ccc(CC2c3cc(OC)c(OC)cc3CC[N+]2(C)CCC(=O)OCCCCCOC(=O)CC[N+]2(C)CCc3cc(OC)c(OC)cc3C2Cc2ccc(OC)c(OC)c2)cc1OC` (stereo not given) was inactive: 0.0972% and inactive: -5.05%; that for `CC(=O)[C@H]1CC[C@H]2[C@@H]3CC=C4C[C@@H](O)CC[C@]4(C)[C@H]3CC[C@]12C` was inactive: 2.56%.
As for `CCC1C(=O)NCCN1Cc1ccc2c(c1)CN(Cc1cccc(OC)c1OC)CCO2` (stereo not given), the activation is inactive: 3.24%.
The figure for `O=C(O)CCCC/C=C(\c1ccccc1)c1cccnc1` is inactive: -30.1%; for `CC[C@]1(c2ncc[nH]2)Cc2ccccc2O1` it is inactive: -12.2%; for `COc1ccc(C(=O)NCC2Cc3cccc(-c4cncnc4)c3O2)c(OC)c1OC` (stereo not given) it is inactive: 2.02%.
On to `O=C(O)CCC/C=C\C[C@@H]1[C@@H](/C=C/[C@@H](O)COc2cccc(Cl)c2)[C@H](O)C[C@@H]1O`, for which the activation is inactive: -2.11% and inactive: 2.91%.
The value for `c1ccc(Nc2ncnc3ccc(-c4cccnc4)cc23)cc1` was inactive: -16.9%; that for `O=c1c(-c2cc(O)c(O)c(O)c2)coc2cc(O)c(O)c(O)c12` was inactive: -24.5%; that for `N#Cc1cccc(-c2nc3cnc(N4CCOCC4)nc3n(C3CC3)c2=O)c1` was inactive: -7.74%.
Take `NCCCNCCSP(=O)(O)O`: the activation was inactive: -2.18% and inactive: -17.3%.
The figure for `CC[C@@H](C(=O)[C@@H](C)[C@@H](O)[C@H](C)CCc1ccc(C)c(O)c1C(=O)O)[C@H]1O[C@](CC)([C@H]2CC[C@](O)(CC)[C@H](C)O2)C[C@@H]1C` is inactive: -17%.
The figure for `CC12CCCC(O)(C1)C1CC(C)(C)C1CC2` (stereo not given) is inactive: -27.5%; for `CC(C)(C)c1ccc(C(O)CCCN2CCC(C(O)(c3ccccc3)c3ccccc3)CC2)cc1` (stereo not given) it is inactive: -11.2% and inactive: -17% and inactive: -12.6%; for `Cc1cc(=O)oc2c(O)c(O)ccc12` it is inactive: -5.12%.
Regarding `CC(COc1ccccc1)NC(C)C(O)c1ccc(O)cc1` (stereo not given), the activation is inactive: -1% and inactive: -3.85%.
The figure for `C[C@H](NC(=O)OC(C)(C)C)C(=O)c1ccco1` is inactive: -10.1%.
The value for `c1ccc(CC[n+]2ccncc2)cc1` was inactive: -13.6%; that for `c1ccc2nc(C3=NCCN3)ccc2c1` was inactive: -4.08% and inactive: -23.9%; that for `COc1ccc(C(=O)N2CCC3(CC2)CN(C(=O)Nc2cccc(C#N)c2)C3)cc1` was inactive: -5.99%.
The figure for `C=C[C@@H]1c2cc(C)ccc2N(S(=O)(=O)c2ccc(C)cc2)[C@H](c2ccccc2)C1(C#N)C#N` is inactive: -17.9%; for `CCCCN1CCCCC1C(=O)Nc1c(C)cccc1C` (stereo not given) it is inactive: -4.48%.
Take `CCOC(=O)NNc1nncc2ccccc12`: the activation was inactive: -12.3% and inactive: 7.36%.
The value for `Cc1cnc(CNc2ncncc2-c2ccccc2Cl)cn1` was inactive: -14%; that for `O=C1CC[C@@H](OCc2ccccc2)CCN1CC[C@H](Sc1ccccc1)c1ccccc1` was inactive: -32.5%.
The figure for `O=C(O)C1(O)CC(O)C(O)C(O)C1` (stereo not given) is inactive: -2.97%.
The figure for `COCC(=O)N1CCC[C@@]2(CCN(C(=O)Nc3cccc(F)c3)C2)C1` is inactive: 2.31%; for `Cc1cc(N(C)C)cc(C)c1/C=C/c1cc[n+](C)c2ccccc12` it is inactive: -16.7%; for `COc1cc(CN2CCCC(n3cc(C(=O)N4CCCCC4)nn3)C2)cc2c1OCO2` (stereo not given) it is inactive: -16.5%.
In the case of `S=c1[nH]c2ccccc2s1`, the activation is inactive: -18.2% and inactive: 25.8% and inactive: 7.88%.
The figure for `CC(=O)c1c(O)cc(O)cc1O` is inactive: -11.1%.
The value for `COCC(=O)N1CCC2(CCN(Cc3ccccc3)CC2)CC1` was inactive: -14.8%; that for `C[C@@H]1C[C@@H]2[C@H]3CCC4=CC(=O)C=C[C@]4(C)[C@]3(F)[C@@H](O)C[C@@]2(C)[C@@]1(O)C(=O)CO` was inactive: -9.48%.
